Test results: publication PMC4336329 (PLoS ONE, 2015)
In all, about 310,000 compounds went through this assay and about 14,000 (4.5%) showed an effect of 50% or more. Effects have a minus sign here. This is one part of the list.

target: human ether-à-go-go-related gene (hERG) potassium channel (human, UniProt Q12809); assay: primary screen, population patch clamp on CHO cells stably expressing hERG
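Further: peak tail current of the secondary pulse compared with the same well before compound.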

Chain of human ether-à-go-go-related gene (hERG) potassium channel (Q12809 whole entry, looked up): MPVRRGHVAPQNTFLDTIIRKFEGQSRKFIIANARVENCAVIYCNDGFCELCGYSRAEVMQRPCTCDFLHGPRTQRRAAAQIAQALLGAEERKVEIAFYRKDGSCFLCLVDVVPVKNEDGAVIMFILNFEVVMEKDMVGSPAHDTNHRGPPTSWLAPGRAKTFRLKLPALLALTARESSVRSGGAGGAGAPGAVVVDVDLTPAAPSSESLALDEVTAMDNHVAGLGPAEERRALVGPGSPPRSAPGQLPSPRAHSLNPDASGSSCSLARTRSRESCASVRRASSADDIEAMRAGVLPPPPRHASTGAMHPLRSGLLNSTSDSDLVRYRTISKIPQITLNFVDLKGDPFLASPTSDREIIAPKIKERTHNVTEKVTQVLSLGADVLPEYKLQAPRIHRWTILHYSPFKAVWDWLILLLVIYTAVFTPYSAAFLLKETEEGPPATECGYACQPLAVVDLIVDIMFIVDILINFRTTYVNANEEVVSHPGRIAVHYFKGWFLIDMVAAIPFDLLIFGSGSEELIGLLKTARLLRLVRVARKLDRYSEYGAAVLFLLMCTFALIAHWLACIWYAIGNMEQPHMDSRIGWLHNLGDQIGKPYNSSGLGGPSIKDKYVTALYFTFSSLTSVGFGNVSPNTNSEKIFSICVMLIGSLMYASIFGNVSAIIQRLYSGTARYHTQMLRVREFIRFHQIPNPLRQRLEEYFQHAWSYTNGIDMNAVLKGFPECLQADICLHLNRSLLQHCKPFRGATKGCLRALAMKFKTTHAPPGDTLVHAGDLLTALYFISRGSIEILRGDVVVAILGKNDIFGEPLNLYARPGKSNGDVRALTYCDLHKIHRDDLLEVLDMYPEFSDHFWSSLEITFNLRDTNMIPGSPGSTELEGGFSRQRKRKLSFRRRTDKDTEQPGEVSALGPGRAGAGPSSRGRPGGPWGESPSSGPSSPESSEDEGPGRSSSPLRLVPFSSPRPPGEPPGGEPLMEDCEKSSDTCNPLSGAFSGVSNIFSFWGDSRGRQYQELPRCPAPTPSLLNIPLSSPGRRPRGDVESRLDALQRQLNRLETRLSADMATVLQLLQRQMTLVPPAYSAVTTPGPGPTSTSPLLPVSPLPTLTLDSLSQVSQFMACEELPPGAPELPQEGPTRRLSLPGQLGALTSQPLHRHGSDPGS

| Compound | hERG current change (%, negative = inhibition) at 10uM [%] |
| --- | --- |
| Cc1ccc(-n2cnnn2)cc1Cl | -18.8 |
| COc1ccccc1CNC(=O)COC(=O)C12CC3CC(CC(O)(C3)C1)C2 | -4.75 |
| O=C(COC(=O)c1cc(Cl)cc(Cl)c1)NCCN1C(=O)CSC1=O | -10.1 |
| CSc1nnc2n(-c3ccc(C)cc3)c(=O)c3c4c(sc3n12)COC(C(C)C)C4 (stereo not shown) | 2.91 |
| C=CCc1cccc(CNn2cnnc2)c1O | 17.7 |
| COC(=O)C1(C)Cc2cc(OC(C)=O)c(OC(C)=O)cc2N1 (stereo not shown) | -6.01 |
| O=C(NCc1ccccn1)c1cc(S(=O)(=O)N2CCCCCC2)ccc1Cl | 5.54 |
| C[C@H](NC(=O)[C@@H]1CSC2c3ccccc3C(=O)N21)C(=O)NCCc1ccccc1 (stereo partly shown) | 11.6 |
| CN(C)C(=N)c1n[nH]nc1SCc1ccc(Cl)c(Cl)c1.Cl | 3.28 |
| CC(=O)c1cccc(NC(=S)NCc2ccco2)c1 | 6.83 |
| CS(=O)(=O)N1CCC(C(=O)Nc2ccc(Oc3ccccc3)cc2)CC1 | -11.9 |
| CCN1CCN(C(=O)C2CCN(Cc3nc(-c4cccc(Cl)c4)oc3C)CC2)CC1 | -42.9 |
| O=C(O)c1ccc2c(c1)C(c1ccccc1)OC2=O (stereo not shown) | 3.47 |
| Cc1ccc2c(CSc3nnc(N)s3)cc(=O)oc2c1 | -11.6 |
| O=C(CSc1ncn[nH]1)N1N=C(c2ccc(Cl)cc2)CC1c1ccco1 (stereo not shown) | -12.5 |
| c1ccc(OCCSc2nnnn2-c2ccccc2)cc1 | -17.6 |
| C#CCNC(=O)C1=C[C@@H](C2CC2)C[C@@H](OCc2ccc(CO)cc2)O1 | 4.4 |
| CCC(C)[C@H](NC(=O)NC1CCN(Cc2ccccc2)CC1)C(=O)OC (stereo partly shown) | -8.81 |
| Cn1nnnc1SCC(=O)C(C)(C)C | 17.7 |
| O=C(CCc1nc2ccccc2c(=O)[nH]1)Nc1ccc(F)cc1 | -20 |

| Compound | hERG current change (%, negative = inhibition) at 10uM [%] |
| --- | --- |
| Cc1cccc(NC(=O)COC(=O)Cc2cccs2)c1C | 22.1 |
| COc1ccc(C(=O)NC2CCCc3ccccc32)cc1Br (stereo not shown) | 13 |
| Cc1ccc(Nc2nc(N)nc(CSC(=S)N3CCOCC3)n2)cc1 | -35.6 |
| Cc1oc(-c2ccc3c(c2)OCCO3)cc1C(=O)NC(Cc1ccccc1)C(=O)O (stereo not shown) | 13.2 |
| CCOC(=O)COn1c(=O)c(=O)n(OC)c2ccccc21 | 17.8 |
| O=C(Cc1coc(-c2ccc(F)cc2)n1)Nc1ccccc1 | -15.4 |
| O=C(NCc1ccc2c(c1)OCO2)c1ccc(N2C(=O)C3CCCCC3C2=O)cc1 (stereo not shown) | -16.8 |
| Cc1ccc2c(c1)c1c(n2CC(O)Cn2ccnc2C)C(=O)CCC1 (stereo not shown) | -28.4 |
| CCCCOc1ccccc1Cn1c(=O)oc2ccccc21 | 10.4 |
| CC(C)Cn1c(SCC(=O)Nc2ccc3[nH]c(=O)[nH]c3c2)nc2ccccc2c1=O | 5.13 |
| O=C(Nc1cc(C(=O)N2CCCC2)ccc1N1CCCC1)c1ccccc1F | -74.6 |
| Cc1cc(C(=O)N/N=C/c2ccncc2)c2ccccc2n1 | 15.6 |
| Br.N=c1n(CCN2CCCCC2)c2ccccc2n1CC(=O)c1ccc(Cl)c(Cl)c1 | -72.6 |
| COc1ccc(NC(=O)c2ccccc2OCc2ccc(F)cc2)c(OC)c1 | 0.588 |
| CCSc1nnc2nc(C)cc(C)n12 | 8.03 |
| Cc1ccc(Oc2nsnc2N2CCOCC2)cc1 | -15.9 |
| Oc1ccc(/C=N/NP(=S)(c2ccccc2)c2ccccc2)cc1O | -3.93 |
| O=C(COC(=O)c1cc(S(=O)(=O)NCc2ccccc2)ccc1O)NCc1ccccc1 | -1.07 |
| COc1ccc(C(c2c(C)[nH][nH]c2=O)c2c(C)[nH][nH]c2=O)cc1Br | 3.87 |
| CC(C)c1ccc(/C=C/c2[nH]c(=O)[nH]c(=O)c2[N+](=O)[O-])cc1 | 12.5 |

| Compound | hERG current change (%, negative = inhibition) at 10uM [%] |
| --- | --- |
| C=CCNC(=S)N/N=C(\C)c1cccc(OC)c1 | -15.4 |
| Cc1cc(=O)oc2cc(NC(=S)NNC(=O)c3c(Cl)cnn3C)ccc12 | 26 |
| COC(=O)c1ccc2c(c1)C(=O)/C(=C/c1ccc(O)cc1)O2 | 18.2 |
| N#Cc1c(NC(=O)C(=O)NCCCN2CCOCC2)sc2c1CCC2 | -4.52 |
| FC(F)(F)c1nnc2c(Sc3ccccc3)nc3ccc(Cl)cc3n12 | 12.2 |
| Cc1oc(C(C)(C)C)cc1C(=O)Nc1cccc(/C=C/C(=O)O)c1 | 3.33 |
| CN1CCCN(C(=O)c2cc(=O)[nH]c3ccccc23)c2nc3ccccc3nc21 | -6.12 |
| CN(C)CCCNC(=O)c1cc(C(=O)Cc2ccc(Cl)cc2)c[nH]1 | -46.2 |
| O=S(=O)(c1ccc2ccccc2c1)N1CCN(C(=S)Nc2ccccc2F)CC1 | -7.61 |
| O=C(N/N=C/c1ccccn1)c1cc(-c2ccccc2Cl)n[nH]1 | 4.74 |
| O=C(CNS(=O)(=O)/C=C/c1ccccc1)OC1CCOC1=O (stereo not shown) | 15.9 |
| Cc1cc(C)n(-c2ccc(Cl)c(C(=O)Nc3ccc(OC(F)(F)F)cc3)n2)n1 | 4.24 |
| C/C(=N\Nc1cccc2cccnc12)c1ccccn1 | 20 |
| CC(=O)N1CCC2(CC1)C(C#N)=C(N)Oc1n[nH]c(C(F)(F)F)c12 | 10.9 |
| COc1ccccc1N1CC=C(c2cccc([N+](=O)[O-])c2)NC1=O | 0.557 |
| CC(=O)c1sc(NC(=O)CSC(C)C(=O)Nc2cc(C)on2)nc1-c1ccccc1 (stereo not shown) | -13.3 |
| COc1ccccc1COCC(O)CNCCc1ccc(C(F)(F)F)cc1.O=C(O)C(=O)O (stereo not shown) | -56.5 |
| O=C(NCC1CCN(Cc2cccc(Cl)c2)CC1)C1CCCN(c2ncnc3c2nc2n3CCCCC2)C1 (stereo not shown) | -44.5 |
